The text below walks through data of paper PMC5892938.

The list shows a part of the results. At the low end of the ranking the order means little.

The target in this assay is GST-SBP-SLBP (stem-loop binding protein) (UniProt Q14493). Description: targeted RNA Bind-n-Seq.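 Note: DESeq read counts versus GST-SBP nonspecific binding control pulldown.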 As to conditions: RBNS binding buffer: 25 mM Tris pH 7.5, 150 mM KCl, 3 mM MgCl2, 0.1% Tween, 0.5 mg/mL BSA, 1 mM DTT; 27 nM protein, 750 pM RNA pool; temperature not stated; high values mean tight binding.
For the sequence “GGUCACGUCUCAAUCAACUCUUUCCCCAGGGAAAACCCUGGCUUAUUCAACAGCUCGCAGUCAAG”, the binding signal (log2 fold change) was determined as 0.0792. With “GGUCACGUCUCAAUCAACUCAUUCUCAGGAGUUUCCUCCUGUAUUUUCAACAGCUCGCAGUCAAG” the figure was 0.158. With “GGUCACGUCUCAAUCAACUCUAUUCCAGGAGUUUCCUCCUGCUUUCUCAACAGCUCGCAGUCAAG” the figure was 0.0872. Take “GGUCACGUCUCAAUCAACUCUUUUUCCAGGGAAAGCCCUGGUUAAUUCAACAGCUCGCAGUCAAG”: the binding signal (log2 fold change) was 0.0655. Regarding “GGUCACGUCUCAAUCAACUCUAUUUCCAGGGAAAACCCUGGCAUGUUCAACAGCUCGCAGUCAAG”, the binding signal (log2 fold change) is 0.0671. With “GGUCACGUCUCAAUCAACUCAACUCCCAGGGAAAUCCCUGGUAUACUCAACAGCUCGCAGUCAAG” the figure was -0.129; with “GGUCACGUCUCAAUCAACUCAUUUUCCAGGGAAAUCCCUGGCAAUCUCAACAGCUCGCAGUCAAG”, 0.0561. Take “GGUCACGUCUCAAUCAACUCAUCAGAGGGGGGGAAAACCCCUUUGCCCUCAUAUUCAACAGCUCGCAGUCAAG”: the binding signal (log2 fold change) was -0.364. Turning to “GGUCACGUCUCAAUCAACUCAUUCCCCAGGGAAAGCCCUGGCAAACUCAACAGCUCGCAGUCAAG”, the binding signal (log2 fold change) is -0.218.

Turning to “GGUCACGUCUCAAUCAACUCUUUUCCAGGAGUUUACUCCUGUUUUCUCAACAGCUCGCAGUCAAG”, the binding signal (log2 fold change) was -0.213. In the case of “GGUCACGUCUCAAUCAACUCUACUUCAGGAGUUUUCUCCUGUAUAUUCAACAGCUCGCAGUCAAG” it was 0.0917; in that of “GGUCACGUCUCAAUCAACUCAUUCCCAGGAGUUUGCUCCUGUAUUUUCAACAGCUCGCAGUCAAG”, 0.0892; in that of “GGUCACGUCUCAAUCAACUCUAUUCCCAGGGAAAACCCUGGCUUAUUCAACAGCUCGCAGUCAAG”, 0.0509. Take “GGUCACGUCUCAAUCAACUCAUCGCCAGGAGUUUUCUCCUGCAAUUUCAACAGCUCGCAGUCAAG”: the binding signal (log2 fold change) was -0.0266. With “GGUCACGUCUCAAUCAACUCUAUUUCCAGGGAAAGCCCUGGCUAUUUCAACAGCUCGCAGUCAAG” the figure was 0.201; with “GGUCACGUCUCAAUCAACUCAUCUUCCAGGGAAACCCCUGGUAUUCUCAACAGCUCGCAGUCAAG”, 0.243; with “GGUCACGUCUCAAUCAACUCACUAGAGGGGGGGAAAACCCCUUUACCCUCGAAUUCAACAGCUCGCAGUCAAG”, -0.11. In the case of “GGUCACGUCUCAAUCAACUCUCAAGAGGGGGGGAAAACCCCUUUACCCUCGAUAUCAACAGCUCGCAGUCAAG” it was 0.131; in that of “GGUCACGUCUCAAUCAACUCUUUCUCAGGAGUUUUCUCCUGCUUUCUCAACAGCUCGCAGUCAAG”, 0.0772; in that of “GGUCACGUCUCAAUCAACUCAUUCCCAGGAGUUUUCUCCUGUAAACUCAACAGCUCGCAGUCAAG”, 0.0883.

As for “GGUCACGUCUCAAUCAACUCAUCGUCAGGAGUUUUCUCCUGUAUUCUCAACAGCUCGCAGUCAAG”, the binding signal (log2 fold change) is -0.158. For the sequence “GGUCACGUCUCAAUCAACUCAAUUCCAGGAGUUUUCUCCUGCUAAUUCAACAGCUCGCAGUCAAG”, the binding signal (log2 fold change) came out at 0.0652. With “GGUCACGUCUCAAUCAACUCAUUUCCCAGGGAAACCCCUGGUAAUCUCAACAGCUCGCAGUCAAG” the figure was -0.0568; with “GGUCACGUCUCAAUCAACUCAUUUUCAGGAGUUUUCUCCUGCUAACUCAACAGCUCGCAGUCAAG”, 0.0378; with “GGUCACGUCUCAAUCAACUCUUUCUCCAGGGAAAUCCCUGGCUAUCUCAACAGCUCGCAGUCAAG”, 0.375. In the case of “GGUCACGUCUCAAUCAACUCAUCCCCCAGGGAAAGCCCUGGUAUAUUCAACAGCUCGCAGUCAAG” it was 0.227; in that of “GGUCACGUCUCAAUCAACUCCACGGAGGGGGGGAAAACCCCUUUACCCUCAUUCUCAACAGCUCGCAGUCAAG”, -0.463.

As to “GGUCACGUCUCAAUCAACUCAUUCCCAGGAGUUUGCUCCUGCUUACUCAACAGCUCGCAGUCAAG”, the binding signal (log2 fold change) is 0.113.

As to “GGUCACGUCUCAAUCAACUCUAUCCCAGGAGUUUUCUCCUGUAAAUUCAACAGCUCGCAGUCAAG”, the binding signal (log2 fold change) is 0.107. As to “GGUCACGUCUCAAUCAACUCAUCUUCAGGAGUUUUCUCCUGUAAAUUCAACAGCUCGCAGUCAAG”, the binding signal (log2 fold change) is 0.107. Regarding “GGUCACGUCUCAAUCAACUCAGUCUCAGGAGUUUGCUCCUGCUAAUUCAACAGCUCGCAGUCAAG”, the binding signal (log2 fold change) was -0.248. With “GGUCACGUCUCAAUCAACUCAAUAGAGGGGGGGAAAACCCCUUUACCCUCCAUAUCAACAGCUCGCAGUCAAG” the figure was 0.379; with “GGUCACGUCUCAAUCAACUCUACUCCCAGGGAAAGCCCUGGCUUACUCAACAGCUCGCAGUCAAG”, 0.0492. In the case of “GGUCACGUCUCAAUCAACUCUUCCUCCAGGGAAACCCCUGGUUUUUUCAACAGCUCGCAGUCAAG” it was -0.214; in that of “GGUCACGUCUCAAUCAACUCAUCGGAGGGGGGGAAAACCCCUUUACCCUCAUAUUCAACAGCUCGCAGUCAAG”, -0.28; in that of “GGUCACGUCUCAAUCAACUCUUCCCCAGGAGUUUUCUCCUGUAUUUUCAACAGCUCGCAGUCAAG”, 0.0371. With “GGUCACGUCUCAAUCAACUCUUUUUCCAGGGAAAUCCCUGGCUUUCUCAACAGCUCGCAGUCAAG” the figure was -0.122.
